Data as given in article PMC4336329 (PLoS ONE, 2015).
Among all 310,000 compounds or so, about 14,000 (4.5%) showed an effect of 50% or more. Effects have a minus sign here. This is one part of the list.

Each compound was assayed against human ether-à-go-go-related gene (hERG) potassium channel (human, UniProt Q12809) (assay: primary screen, population patch clamp on CHO cells stably expressing hERG).
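Also: peak tail current of the secondary pulse compared with the same well before compound.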

Chain of human ether-à-go-go-related gene (hERG) potassium channel (Q12809 whole entry, looked up): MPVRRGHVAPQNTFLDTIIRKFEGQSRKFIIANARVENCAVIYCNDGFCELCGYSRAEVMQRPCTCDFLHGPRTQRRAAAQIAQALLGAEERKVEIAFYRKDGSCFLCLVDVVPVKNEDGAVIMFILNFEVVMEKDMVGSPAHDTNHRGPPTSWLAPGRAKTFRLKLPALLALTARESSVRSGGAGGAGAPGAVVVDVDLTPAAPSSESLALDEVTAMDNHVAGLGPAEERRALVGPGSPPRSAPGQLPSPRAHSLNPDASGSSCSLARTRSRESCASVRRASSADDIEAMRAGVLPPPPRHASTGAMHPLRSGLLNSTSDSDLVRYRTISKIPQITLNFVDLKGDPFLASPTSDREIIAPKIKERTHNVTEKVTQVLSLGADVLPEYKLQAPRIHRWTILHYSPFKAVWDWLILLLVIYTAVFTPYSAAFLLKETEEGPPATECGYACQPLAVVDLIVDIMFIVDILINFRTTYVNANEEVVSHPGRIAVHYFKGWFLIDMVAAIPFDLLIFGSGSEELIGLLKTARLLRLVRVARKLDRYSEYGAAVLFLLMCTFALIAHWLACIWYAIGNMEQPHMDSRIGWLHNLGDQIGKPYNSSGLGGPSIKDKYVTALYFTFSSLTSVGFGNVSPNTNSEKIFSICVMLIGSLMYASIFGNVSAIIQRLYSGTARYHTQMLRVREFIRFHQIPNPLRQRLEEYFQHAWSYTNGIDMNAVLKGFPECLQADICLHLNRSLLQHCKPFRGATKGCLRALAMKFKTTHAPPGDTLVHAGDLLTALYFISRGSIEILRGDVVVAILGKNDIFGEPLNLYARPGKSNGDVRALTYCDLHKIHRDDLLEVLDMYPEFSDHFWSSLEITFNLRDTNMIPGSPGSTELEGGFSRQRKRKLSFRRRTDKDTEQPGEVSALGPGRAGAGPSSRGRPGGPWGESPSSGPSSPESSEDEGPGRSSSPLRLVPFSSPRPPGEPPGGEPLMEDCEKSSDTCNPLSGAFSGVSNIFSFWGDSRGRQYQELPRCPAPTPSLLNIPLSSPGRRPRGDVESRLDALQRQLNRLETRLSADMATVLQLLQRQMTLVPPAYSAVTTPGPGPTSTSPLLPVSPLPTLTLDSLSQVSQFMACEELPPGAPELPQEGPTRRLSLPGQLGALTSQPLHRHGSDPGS

Row | SMILES | hERG current change (%, negative = inhibition) at 10uM [%]
1 | Cc1ccc(/C=N/NC(=O)CNC(=O)c2cccs2)cc1 | 4.94
2 | CC(C)N(C(=O)Cn1cnc2c(cnn2-c2ccccc2Cl)c1=O)C(C)C | 9.03
3 | COC(=O)c1ccc(CO/N=C/c2cccc([N+](=O)[O-])c2)cc1 | 22.7
4 | O=C(C1CCN(S(=O)(=O)c2ccc(Br)s2)CC1)N1CCCCC1 | -24.5
5 | CC1CCCCN1CCNC(=O)CN1C(=O)CSc2ccc(S(=O)(=O)N3CCCCC3)cc21 (stereo not shown) | -17.6
6 | COc1cc(/C=N/NC(=Nc2ccc(C)cc2)c2nc3ccccc3s2)ccc1O | -28.1
7 | O=C(CCn1c(=O)oc2ccccc21)Nc1ccc(N2CCOCC2)cc1 | 23.8
8 | O=C(NCC1CCCO1)C(c1ccco1)N(Cc1ccc(F)cc1)C(=O)CN1C(=O)c2ccccc2S1(=O)=O (stereo not shown) | -7.48
9 | CSCC[C@H](N)C(=O)NCC1CCC(C(=O)N[C@@H](Cc2ccccc2)C(=O)O)CC1.Cl (stereo partly shown) | 1.22
10 | COc1ccc(C)cc1NC(=O)CCC(=O)Nc1nnc(C2CCCCC2)s1 | 20.9
11 | CCc1nnc(N/N=C/c2cc(C)c(C)cc2C)n1N | 15.1
12 | COc1ccnc(CSC(N)=Nc2ccccc2C(F)(F)F)c1 | -2.89
13 | CC(=O)N(C(C)=O)c1ncc2c([nH]c3ccccc32)c1C#N | 2.9
14 | Cc1ccc2c(c1)nnn2C1CCN(CC(=O)NCCc2ccccc2)CC1 | -50.4
15 | Cl.c1ccc(CN2CCNCC2)nc1 | 16.8
16 | O=C(Nc1nc2ccccc2s1)c1cccc(N2C(=O)CCC2=O)c1 | 4.28
17 | Cc1ccc(C(=O)NC(C)c2ccc(F)cc2)cc1 (stereo not shown) | 17.6
18 | COc1ccc(-n2nc(C(N)=O)nc2-c2ccccc2)cc1 | -12.1
19 | COc1ccc(NS(=O)(=O)c2ccc(Cl)c(N)c2)cc1Br | -0.937
20 | O=C1COc2ccc(N3C(=O)C=CC3=O)cc2N1 | -16.5
21 | O=C1CCCN1CCCNc1ccc2nnc(CCC(=O)N3CCN(c4ccc(F)cc4)CC3)n2n1 | -0.74
22 | CCOC(=O)c1cnc(SCC(=O)NCc2ccco2)nc1N | -14.5

Row | SMILES | hERG current change (%, negative = inhibition) at 10uM [%]
23 | Brc1cccc(OCCN2CCCCC2)c1.O=C(O)C(=O)O | -21.3
24 | Cc1ccc(S(=O)(=O)Nc2cccc(N(C)S(C)(=O)=O)c2)cc1[N+](=O)[O-] | 5.48
25 | C/C(=N\Nc1ccc([N+](=O)[O-])cc1[N+](=O)[O-])C(C)(C)C(C(=O)O)C(=O)O | 5.86
26 | O=C(Nc1cccc(Cl)c1Cl)C1CCCO1 (stereo not shown) | 18.5
27 | Cc1cccc(OCC(=O)OC(C)C(=O)Nc2ccc(Cl)cn2)c1 (stereo not shown) | -1.87
28 | NC(=O)c1nsc(C(=O)N(c2cccc(F)c2)C(C(=O)NCC2CCCO2)c2ccc3ncccc3c2)c1N (stereo not shown) | -23.3
29 | CC(Sc1nncn1C)C(=O)Nc1cc(C(F)(F)F)ccc1N1CCOCC1 (stereo not shown) | -15.1
30 | Cc1ccc2c(c1)C1C3CCC(C3)C1S(=O)N2 (stereo not shown) | 23.1
31 | Cc1ccc(C)c2c1cc(C)c1nnc(SCC(=O)c3cccs3)n12 | -61.5
32 | COC(=O)c1cc(S(=O)(=O)N2CCC(C)CC2)ccc1F | -18
33 | Cc1cc(OCC(=O)NNC(=O)c2cccc(F)c2)ccc1Cl | 7.87
34 | Cc1ccc(-c2nc3sc(C#N)c(N)n3c(=O)c2C#N)cc1 | 29.2
35 | COC1=C/C(=C/c2c(N)n3c(nc2=O)sc2cc(S(C)(=O)=O)ccc23)C=CC1=O | 28.2
36 | Cc1ccccc1CN1CCC(N2CCC(C(=O)NCC3CCCO3)CC2)CC1 (stereo not shown) | -1.07
37 | CCOCCOC(=O)NCCCCCCNC(=O)OCCOCC | 13.2
38 | C=CCOc1ccc(/C=C/C(=O)OCC(=O)NCC2CCCCC2)cc1 | -5.74
39 | CCN(c1ccc(OC)cc1)S(=O)(=O)c1nnc(NC(=O)c2ccccc2Cl)s1 | 15.5
40 | Cc1ccc(NC(=O)CN2C(=O)CCS(=O)(=O)c3ccccc32)cc1Cl | 18.6
41 | CCn1c(SCC(=O)c2ccc(NC(C)=O)c(OC)c2)nnc1-c1ccc(NS(C)(=O)=O)cc1 | 15.8
42 | CC(=O)c1ccc(NC(=O)C2C3C=CC(C3=C(c3ccccc3)c3ccccc3)C2C(=O)O)cc1 (stereo not shown) | 2.53
43 | CCOP(=O)(OCC)c1ccc(O)cc1 | 13.3
44 | CC1CCC(NC(=O)c2nn(C)c3c2CS(=O)(=O)c2ccccc2-3)CC1 (stereo not shown) | -21.1

Row | SMILES | hERG current change (%, negative = inhibition) at 10uM [%]
45 | COc1cccc(NC(=O)C2=COCCO2)c1 | 3.72
46 | COc1ccccc1N1C(=O)c2ccccc2NC1c1ccncc1 (stereo not shown) | -13
47 | CC1CCCC(C)N1C(=O)COC(=O)c1cc(Br)ccc1Cl (stereo not shown) | 14.8
48 | c1ccc(CSc2nc3ncncc3[nH]2)cc1 | 2.94
49 | O=C(CNC(=O)c1ccc(S(=O)(=O)N2CCCC2)cc1)N/N=C/c1ccc(Cl)cc1Cl | -3.34
50 | Cc1ccc2c(c1)cc(CN(Cc1cccs1)C(=O)c1ccco1)c1nnnn12 | -16.8
51 | COc1ccc(-c2cc(C(F)(F)F)nc(N3CCOCC3)n2)cc1OC | 6.92
52 | CCN1CCN(Cc2ccc(NC(=O)Nc3ccc(OC)cc3)cc2)CC1 | -7.9
53 | O=C(Nc1cc(C(F)(F)F)ccc1N1CCOCC1)c1cncc(Br)c1 | -18.4
54 | CCOc1ccccc1N1CCN(C(=O)C(Sc2ccccc2)c2ccccc2)CC1 (stereo not shown) | 0.257
55 | O=C(O)CC/C(=N\NC(=O)c1ccccc1)c1cccs1 | 8.65
56 | COc1ccc(-n2c(CCc3ccccc3)nnc2SCC(=O)c2ccccc2)cc1 | -11.3
57 | O=C(Nc1ccc(Cl)cc1)N1CCSc2ccccc21 | -4.16
58 | Cc1cc(NC(=O)CCC(=O)N(CC(=O)NCC2CCCO2)c2ccc(C)c(C)c2)no1 (stereo not shown) | 8.68
59 | CCC(Sc1nc2cc(OC)c(OC)cc2c(=O)n1Cc1ccco1)C(=O)NCCOC (stereo not shown) | -28.2
60 | Cc1cc(C)[n+](-c2ccc(F)cc2)c2[nH]c(=O)[nH]c(=O)c12.[I-] | -10.9
61 | COc1ccc(CC(=O)Nc2ccc(-c3noc(-c4cc(OC)c(OC)c(OC)c4)n3)cc2)cc1 | 0.417
62 | COc1ccc(Cc2nnc(SCC(=O)NC3CCCC3)o2)cc1 | -9.12
63 | CC(=O)Nc1ccc(NC(=O)c2c(C)nn(Cc3ccccc3Cl)c2C)cc1 | -8.41
64 | O=C(OCc1ccccc1)c1cc(S(=O)(=O)N2CCCCC2)ccc1N1CCOCC1 | -27.3
65 | CS(=O)(=O)Nc1ccc(C2=NN(C(=O)c3ccco3)C(c3ccc(F)cc3)C2)cc1 (stereo not shown) | -81.1
66 | COc1cccc(/C=N/NC(=O)C(=O)NCc2cccnc2)c1OC | 52.7

Row | SMILES | hERG current change (%, negative = inhibition) at 10uM [%]
67 | Cn1c(=O)c2sccc2n(Cc2ccccc2)c1=O | -3.99
68 | O=C(CSC1=Nc2ccccc2C2=NC(CC(=O)NCc3ccco3)C(=O)N12)NCC1CCCO1 (stereo not shown) | 7.92
69 | CCOC(=O)c1c(N)sn(-c2ccccc2)c1=S | 6.15
70 | COc1ccc(OC)c(-n2c(-c3ccc(C)cc3)n[nH]c2=S)c1 | 0.818
71 | O=C(Nc1nc2ccc([N+](=O)[O-])cc2s1)C1CCCO1 (stereo not shown) | -14.8
72 | CC(C)(C)C1CCC(C(=O)OCC(=O)N2CCN(C(=O)c3ccco3)CC2)CC1 (stereo not shown) | -32.4
73 | CC(=O)Nc1cc(-c2nc3ccccc3o2)ccc1Cl | 11.6
74 | COc1ccc(Cl)c(N2CCN(CCCNC(=O)Nc3ccc(C)cc3)CC2)c1 | -72.4
75 | Nc1ccccc1C(=O)Nc1cccc2ccccc12 | 7.48
76 | COc1ccc(N(CC(=O)NC2CCCCC2)C(=O)CCC(=O)Nc2nc(C)cs2)cc1OC | 6.12
77 | COC(=O)c1ccc(C)c(NS(=O)(=O)c2ccc(NC(C)=O)cc2)c1 | -17.8
78 | O=C(NCc1ccccn1)c1ccc(-c2ccccc2)cc1 | 7.59
79 | CC(NC(=O)c1ccc(F)cc1)c1ccc(F)cc1 (stereo not shown) | -31.1
80 | Cc1ccc(NC(=O)CCC(=O)N/N=C/c2cccnc2)cc1 | 8.62
81 | COc1ccccc1OCC(=O)NCC1CCCN(Cc2cnn(C(C)C)c2)C1 (stereo not shown) | 6.8
82 | Cc1cc(C)nc(SCC(=O)NNC(=O)c2ccccc2C)n1 | 1.72
83 | CCCCNC(=O)NS(=O)(=O)c1ccc(C)cc1 | 10.4
84 | Cc1ccc(NS(=O)(=O)c2ccc(-c3ccc(=O)[nH]n3)o2)cc1N(C)C | 1.5
85 | O=C(Nc1ccc2c(c1)C(=O)OC2)c1ccc(Cl)cc1Cl | -0.86
86 | O=C(Cn1cnc2ccccc2c1=O)NCCC(=O)N1CCC2(CC1)OCCO2 | 17.7
87 | COc1cc(NC(=O)c2cccc(F)c2)cc(OC)c1OC | 13.1
88 | O=S(=O)(NCC1CCCO1)c1cccc(C(F)(F)F)c1 (stereo not shown) | -4.14
